From the supplement of paper PMC12217912
Some of the results follow. The full chains were built here from the parent and the listed change. Inactive controls read about 0.05.

B1: TEV protease; numbered along this chain (parent)
chain: MGESLFKGPRDYNPISSSICHLTNESDGHTTSLYGIGFGPFIITNKHLFRRNNGTLVVQSLHGVFKVKDTTTLQQHLVDGRDMIIIRMPKDFPPFPQKLKFREPQREERICLVTTNFQTKSMSSMVSDTSCTFPSGDGIFWKHWIQTKDGQCGSPLVSTRDGFIVGIHSASNFTNTNNYFTSVPKNFMELLTNQEAQQWVSGWRLNADSVLWGGHKVFMVKPEEPFQPVKEATQL

Variants of: B1
Experiment: raw area under fraction-flipped curve 0-4 h after induction (AUC4h, not background-subtracted), DNA-recorder readout of cleavage of the substrate (dimensionless); higher = more cleavage of the substrate by the protease variant
Conditions: temperature: 34 °C; time window: 0-4 h after rhamnose induction
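Further: Bxb1 expression induced with 0.2% (w/v) L-rhamnose at OD600 near 0.5, cultures sampled hourly, flipped fraction per protease–substrate barcode pair counted by paired-end Illumina sequencing.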

Variant	area with substrate ENLDFQS	area with substrate ENLEFQS	area with substrate ENLFFQS	area with substrate ENLLFQS	area with substrate ENLNFQS	area with substrate ENLPFQS	area with substrate ENLWFQS	area with substrate ENLHFQS	area with substrate ENLKFQS	area with substrate ENLRFQS	area with substrate ENLSFQS	area with substrate ENLTFQS	area with substrate ENLGFQS	area with substrate ENLIFQS	area with substrate ENLQFQS	area with substrate ENLMFQS	area with substrate ENLVFQS
MGESLFKGPRDYNPISSSICHLTNESDGHTTSLYGIGFGPFIITNKHLFRRNNGTLVVQSLHGVFKVKDTTTLQQHLVDGRDMIIIRMFKDFPPFPQKLKFREPQREERICLVTTNFQTKSMSSMVSDTSCTFPSGDGIFWKHWIQTKDGQCGSPLVSTRDGFIVGIHSASNFTNTNNYFTSVPKNFMELLTNQEAQQWVSGWRLNADSVLWGGHKVFMVKPEEPFQPVKEATQL [P89F]	0.0514	0.0602	0.0492	0.0641	0.0556	0.0579	0.0522										
MGESLFKGPRDYNPISSSICHLTNESDGHTTSLYGIGFGPFIITNKHLFRRNNGTLVVQSLHGVFKVKDTTPLQQHLVDGRDMIIIRMPKDFPPFPQKLKFREPQREERICLVTTNFQTKSMSSMVSDTSCTFPSGDGIFWKHWIQTKDGQCGSPLVSTRDGFIVGIHSASNFTNTNNYFTSVPKNFMELLTNQEAQQWVSGWRLNADSVLWGGHKVFMVKPEEPFQPVKEATQL [T72P]	0.0614		0.0707	0.0524	0.0685	0.0498	0.0504	0.059	0.0685	0.0544	0.0524	0.0623					
MGESLFKGPRDYNPISSSICHLTNESDGHTTSLYGIGFGPFIITNKHLFRRNNGTLVVQSLHGVFKVKDTTTLQQHLVVGRDMIIIRMPKDFPPFPQKLKFREPQREERICLVTTNFQTKSMSSMVSDTSCTFPSGDGIFWKHWIQTKDGQCGSPLVSTRDGFIVGIHSASNFTNTNNYFTSVPKNFMELLTNQEAQQWVSGWRLNADSVLWGGHKVFMVKPEEPFQPVKEATQL [D79V]	0.0663	0.0836	0.0768	0.053	0.0694	0.0718	0.0629	0.0691	0.0734		0.0623		0.075	0.0819	0.0655		
MGESLFKGPRDYNPISSSICHLTNESDGHTTSLYGIGFGPFIITNKHLFRRNNGTLVVQSLHGVFKVKDTTTLQQHLVDGRDMIFIRMPKDFPPFPQKLKFREPQREERICLVTTNFQTKSMSSMVSDTSCTFPSGDGIFWKHWIQTKDGQCGSPLVSTRDGFIVGIHSASNFTNTNNYFTSVPKNFMELLTNQEAQQWVSGWRLNADSVLWGGHKVFMVKPEEPFQPVKEATQL [I85F]	0.0354	0.0595	0.0743		0.0818	0.0549			0.0655	0.0612	0.0375		0.0383	0.0938		0.0648	0.0758
MGESLFKGPRDYNPISSSICHLTNESDGHTTSLYGIGFGPFIITNKHLFRRNNGTLVVQSLHGVFKVKDTTTLQQHLVDGRDMIIIRMPKDFPPFPQKLKFRKPQREERICLVTTNFQTKSMSSMVSDTSCTFPSGDGIFWKHWIQTKDGQCGSPLVSTRDGFIVGIHSASNFTNTNNYFTSVPKNFMELLTNQEAQQWVSGWRLNADSVLWGGHKVFMVKPEEPFQPVKEATQL [E103K]	0.0674	0.068	0.0812		0.06	0.0494	0.0604	0.0523	0.057	0.0776	0.0838		0.0728	0.0879	0.0793	0.0774	
MGESLFKGPRDYNPISSSICHLTNESDGHTTSLYGIGFGPFIITNKHLFRRNNGTLVVQSLHGVFKVKDTTTLQQHLVDGRDMIIIRMPKDFPPFPQKLKQREPQREERICLVTTNFQTKSMSSMVSDTSCTFPSGDGIFWKHWIQTKDGQCGSPLVSTRDGFIVGIHSASNFTNTNNYFTSVPKNFMELLTNQEAQQWVSGWRLNADSVLWGGHKVFMVKPEEPFQPVKEATQL [F101Q]	0.0421	0.0598	0.0501	0.0508	0.0566			0.051	0.0698		0.0648	0.0596	0.0682				
MGESLFKGPRDYNPISSSICHLTNESDGHTTSLYGIGFGPFIITNKHLFRRNNGTLVVQSLHGVFKVKDTTTLQQHLVDGRDMIIIRMPKDFPPFPQKLNFREPQREERICLVTTNFQTKSMSSMVSDTSCTFPSGDGIFWKHWIQTKDGQCGSPLVSTRDGFIVGIHSASNFTNTNNYFTSVPKNFMELLTNQEAQQWVSGWRLNADSVLWGGHKVFMVKPEEPFQPVKEATQL [K100N]	0.0583	0.0676	0.094	0.0656	0.0609	0.0496		0.0534	0.0899				0.0659	0.0954		0.054	
MGESLFKGPRDYNPISSSICHLTNESDGHTTSLYGIGFGPFIITNKHLFRRNNGTLVVQSLHGVFKVKDTTTLQQHLVDGRDMIIIRMPKDFPPFPQQLKFREPQREERICLVTTNFQTKSMSSMVSDTSCTFPSGDGIFWKHWIQTKDGQCGSPLVSTRDGFIVGIHSASNFTNTNNYFTSVPKNFMELLTNQEAQQWVSGWRLNADSVLWGGHKVFMVKPEEPFQPVKEATQL [K98Q]	0.0672	0.0748	0.0901	0.0823	0.0701	0.0637	0.0694	0.0671	0.0879	0.0863			0.05	0.0851	0.0516		
MGESLFKGPRDYNPISSSICHLTNESDGHTTSLYGIGFGPFIITNKHLFRRNNGTLVVQSLHGVFKVKDTTTGQQHLVDGRDMIIIRMPKDFPPFPQKLKFREPQREERICLVTTNFQTKSMSSMVSDTSCTFPSGDGIFWKHWIQTKDGQCGSPLVSTRDGFIVGIHSASNFTNTNNYFTSVPKNFMELLTNQEAQQWVSGWRLNADSVLWGGHKVFMVKPEEPFQPVKEATQL [L73G]	0.0565	0.0412	0.0519	0.0342		0.051		0.0536	0.0573	0.0614		0.0592		0.0432		0.049	
MGESLFKGPRDYNPISSSICHLTNESDGHTTSLYGIGFGPFIITNKHLFRRNNGTLVVQSLHGVFKVKDTTTLQQHLVDGRDMIIIRMPKDFPPFPQKLKFREPQREYRICLVTTNFQTKSMSSMVSDTSCTFPSGDGIFWKHWIQTKDGQCGSPLVSTRDGFIVGIHSASNFTNTNNYFTSVPKNFMELLTNQEAQQWVSGWRLNADSVLWGGHKVFMVKPEEPFQPVKEATQL [E108Y]	0.0642	0.0615	0.0365			0.0501	0.0636	0.0405	0.0546	0.0462	0.058			0.0569	0.0694		0.0663
